About 5,000 (1.2%) of roughly 410,000 compounds were called active. The shares of active, inactive and inconclusive entries below differ from those in the screen. Calls come from the whole dose curve; as a rule, active = well fitted inhibition curve with a large enough effect; inconclusive = small, poorly fitted or top-dose-only effect; inactive = no such curve, though single readings can be large or run the other way. A potency beside an inconclusive call is a rough fit, not a confirmed value.
Assay: qHTS for Inhibitors of TGF-b; note: nearly all actives have a fitted effect of over 65% in size
Settings: HepG2 CAGA-GFP TGF-b/SMAD3 reporter, GFP fluorescence, 18 h, TGF-beta stimulated, 500 pg/mL final; series mostly up to 46.1 µM; activity, negative = inhibition: at the top concentration
Summary of the method: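 Cell-based qHTS in HEPG2 carrying a CAGA-GFP Smad reporter; compounds added before 500 pg/mL final TGF-beta, 18 h incubation at 37 degrees C, GFP fluorescence quantified per cell by imaging cytometry.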
With `CN(C)S(=O)(=O)c1ccc(Oc2ccc(S(=O)(=O)N(C)C)cc2)cc1` the Potency was inconclusive: 12.6 µM [inhibitor, single point]. In the case of `CN(C=O)c1cc([N+](=O)[O-])ccc1OCc1ccccc1`, the “activity, negative = inhibition” value is reported as inactive: -16.7%. In the case of `COc1ccccc1C(=O)NCCC(=O)Nc1ccc(S(=O)(=O)N2CC(C)CC(C)C2)cc1` (configuration not stated), the Potency is reported as inconclusive: 35.5 µM [inhibitor, single point]. With `COc1cccc(Nc2sc(C(=O)c3ccc(Cl)cc3)c(N)c2C(=O)NCc2ccc(C)cc2)c1` the Potency was active: 12.6 µM. For `Cc1ccc(C(c2nc3ccccc3[nH]2)n2c(-c3ccccc3)nc3ccccc32)cc1` (configuration not stated), the Potency was active: 20 µM. In the case of `COc1ccc(CN(CC(=O)NCCc2ccccc2)C(=O)CCC(=O)Nc2cc(C)ccn2)cc1`, the “activity, negative = inhibition” value is reported as inactive: 1.14%. With `COc1ccc(OC)c(NC(=O)C(=O)/C=C(\O)c2cc(OC)ccc2OC)c1` the Potency was inconclusive: 1 µM [inhibitor, full curve, poor fit]. For `CCOc1ccc(NS(=O)(=O)c2cc(NC(=O)c3cccc(C)c3)ccc2Cl)cc1`, the Potency was inconclusive: 22.4 µM [inhibitor, single point]. For `COc1ccc(-c2ccc3c(c2)[C@@H]2C[C@H](N(C)C(=O)Nc4ccccc4)[C@H]([C@H](C)O)C(=O)N2CC3)cc1`, the Potency was inconclusive: 12.6 µM [inhibitor, partial curve, poor fit]. For `CCOc1ccc(CNC(=O)CN2C(=O)CSc3ccc(S(=O)(=O)N4CCOCC4)cc32)cc1`, the “activity, negative = inhibition” value was inactive: -4.54%. In the case of `O=C(OCc1ccccc1)N1CCC2CC1c1cc(-c3cc4ccccc4o3)ccc12` (configuration not stated), the “activity, negative = inhibition” value is reported as inactive: 5.97%. With `Cc1cc(Cl)ccc1C(O)c1ncc(-c2cccc3ccccc23)[nH]1` (configuration not stated) the Potency was active: 12.6 µM. In the case of `CC(C)NC(=O)C1(C)CCCN1Cc1csc2ccccc12` (configuration not stated), the “activity, negative = inhibition” value is reported as inactive: -10.7%. With `COc1ccc(CNC(=O)c2cc(=O)[nH]c3ccc(S(=O)(=O)N4CCCC4)cc23)c(OC)c1` the “activity, negative = inhibition” value was inactive: -18.8%. For `CCCCn1c(=O)[nH]c(=O)c2c1nc(-c1ccccc1OC(F)F)n2C`, the “activity, negative = inhibition” value was inactive: 2.74%. For `Cc1ccc(CNC(=O)C(=O)NCC2OCCN2C(=O)c2cccs2)cc1` (configuration not stated), the Potency was inconclusive: 22.4 µM [inhibitor, partial curve, poor fit]. With `CC(O)(c1ccc(F)c(F)c1)c1nc(-c2ccc(F)c(Cl)c2)cs1` (configuration not stated) the Potency was inconclusive: 17.8 µM [inhibitor, single point]. With `COc1ccc(CCC(=O)NCc2nc3cccnc3n2Cc2ccc(F)cc2)cc1` the Potency was inconclusive: 2.24 µM [inhibitor, partial curve, poor fit]. In the case of `CCc1ccc(C2/C=C\CNC(c3ccccc3)C(=O)N2Cc2ccc(C)cc2)cc1` (configuration not stated), the Potency is reported as inconclusive: 25.1 µM [inhibitor, single point]. In the case of `Cc1ccc(-c2nnc(Nc3cccc(O)c3)c3ccccc23)cc1S(=O)(=O)NCC1CCCO1` (configuration not stated), the Potency is reported as inconclusive: 35.5 µM [inhibitor, single point]. With `CC(NC(=S)Nc1ccc(OC(F)F)cc1OC(F)F)C(C)(C)C` (configuration not stated) the Potency was inconclusive: 35.5 µM [inhibitor, single point]. In the case of `COc1ccc(CNC(=O)C2(CC3CC(c4ccccc4)=NO3)CCNCC2)cc1` (configuration not stated), the Potency is reported as inconclusive: 3.98 µM [inhibitor, single point]. For `CCC(C)c1ccccc1NC(=O)CN(C)CCOc1ccc(Cl)cc1` (configuration not stated), the “activity, negative = inhibition” value was inactive: 0%. With `CC(C)CN(C(=O)COC(=O)c1ccc([N+](=O)[O-])s1)c1c(N)n(Cc2ccccc2)c(=O)[nH]c1=O` the Potency was inconclusive: 35.5 µM [inhibitor, single point]. For `NS(=O)(=O)c1ccc(CCNc2ncnc3c2cnn3-c2cccc(Cl)c2)cc1`, the Potency was inconclusive: 35.5 µM [inhibitor, single point]. In the case of `CCOC(=O)c1cnc(-c2ccccc2)nc1Oc1ccc(C)cc1`, the Potency is reported as inconclusive: 3.55 µM [inhibitor, single point]. For `O=C(NCc1ccccc1Cl)c1ccc2c(c1)N(Cc1ccccc1)C(=O)CS2`, the Potency was inconclusive: 35.5 µM [inhibitor, single point]. With `O=C(CN1C(=O)COc2ccccc21)N1CCc2ccccc2C1` the “activity, negative = inhibition” value was inactive: -14.8%. With `O=C(COC(=O)c1ccccc1OCc1ccccc1Cl)NCC1CCCO1` (configuration not stated) the Potency was inconclusive: 35.5 µM [inhibitor, single point]. For `CCC(CO)Oc1cc(NCc2cc(C)cc(C)c2)c2ncn(C(C)C)c2c1` (configuration not stated), the Potency was inconclusive: 22.4 µM [inhibitor, single point]. In the case of `O=S(=O)(c1ccc(F)cc1)c1nc(-c2ccccc2)oc1N1CCOCC1`, the “activity, negative = inhibition” value is reported as inactive: -0.0796%. In the case of `C=CCOc1ccc2c(OC)c3ccoc3nc2c1OC`, the Potency is reported as inconclusive: 6.31 µM [inhibitor, single point]. With `CC(C)CSc1nc2c(c(=O)[nH]c(=O)n2C)n1CC(O)COc1cccc2ccccc12` (configuration not stated) the Potency was inconclusive: 3.98 µM [inhibitor, single point]. In the case of `CCn1cc(C(=O)NN)c(=O)c2cc(F)c(N3CCOCC3)cc21`, the Potency is reported as inconclusive: 35.5 µM [inhibitor, single point]. With `CN(Cc1ccccc1)S(=O)(=O)c1ccc2[nH]c3c(c2c1)CCCCC3` the Potency was inconclusive: 35.5 µM [inhibitor, partial curve, poor fit]. In the case of `O=c1[nH]c(CN2CCN(c3ccccc3Cl)CC2)nc2ccsc12`, the “activity, negative = inhibition” value is reported as inactive: -15.3%. For `COc1cc(OC)c(N(C)C(=O)c2cn(C3CCCC3)c(=O)c3c2c2ccccc2n3C)cc1Cl`, the Potency was inconclusive: 20 µM [inhibitor, single point]. In the case of `Cc1ccc([N+](=O)[O-])cc1S(=O)(=O)Nc1cccc(-c2ccc(N3CCCC3)nn2)c1`, the Potency is reported as inconclusive: 22.4 µM [inhibitor, single point]. In the case of `Cc1cccc2sc(N(CCCN(C)C)C(=O)CCS(=O)(=O)c3ccccc3)nc12`, the Potency is reported as active: 3.16 µM. With `O=C(Nc1ccc(S(=O)(=O)N2CCOCC2)cc1)c1ccc([N+](=O)[O-])o1` the Potency was active: 6.31 µM. With `O=C(Nc1cccc(C(F)(F)F)c1)N1CC2CCCN2c2ccccc21` (configuration not stated) the Potency was inconclusive: 12.6 µM [inhibitor, partial curve, poor fit]. In the case of `CC(=O)N1CCN(c2ccc(S(=O)(=O)N3CCOCC3)cc2[N+](=O)[O-])CC1`, the “activity, negative = inhibition” value is reported as inactive: 7.23%.

Source: PubChem BioAssay AID588855 (National Center for Advancing Translational Sciences (NCATS), 2011)
% is set by controls: 0 for no effect and ±100 for the full control effect; potency is the fitted concentration of half-maximal effect; tags give direction and shape of the fitted curve.
